By % Inhibition is commonly meant the change of the read-out against control, counted positive when it falls.

The campaign covered roughly 150,000 compounds. About 540 (0.36%) showed an effect of 50% or more. Some of the results follow.

For the assay, the system named is Plasmodium falciparum. Nature of the assay: Primary screen in NF54 nanoGlo assay, in single point, at 2uM, 72h; a lower Z score goes with more inhibition. The format is functional, Erythrocyte. The conditions noted are these: timepoint 72 hour.
In the case of `CCCN(C)c1nccc(N2CCN[C@@H]3CS(=O)(=O)C[C@@H]32)n1`, the “% Inhibition” value stood at 7% and the Z score is on record as -1.3.
On to `N#Cc1ccccc1CN1Cc2ccccc2C1=N`, for which the “% Inhibition” value is reported as -12% and the Z score is 2.07.
For `COc1cc(N2CCN(C)[C@@]3(CCNC(=O)CC3)C2)nc(OC)n1` the same measures were -13% and 2.49.
Take `O=C(NCC1CCN(c2nc3ccccc3o2)CC1)Oc1ccccc1`: the “% Inhibition” value is listed as -19% and the Z score came out at 2.82.
For `O=C(c1cc2ccccc2c(=O)[nH]1)N1CCC2(CC1)OCCO2`, the “% Inhibition” value is -16% and the Z score amounted to 1.82.
For `NC(=O)[C@@H](c1ccc(F)cc1)n1nc(-c2cccs2)oc1=O` the same measures were -5% and 0.99.
For `COCc1nn(Cc2csc3c(Cl)cccc23)c(=O)o1` the same measures were 2% and -0.19.
For `CC1CCN([C@@H](C)Cn2c(=O)[nH]c3ccccc3c2=O)CC1` the same measures were -2% and 0.39.
Turning to `COc1ccc(-n2cnc3cc(C(=O)N4CCC5(CC4)OCCO5)ccc32)cc1`, the “% Inhibition” value is -16% and the Z score was found to be 2.58.
For `Cc1[nH]c2ccccc2c1C1CCN(Cc2cn[nH]c2)CC1` the same measures were 8% and -0.96.
For `CCCn1ccnc1CN(C)[C@@H](C)Cc1ncccc1C` the same measures were -7% and 1.36.
Regarding `COc1ccc([C@H]2C[C@H]3CC[C@@H](C2)N3Cc2[nH]cnc2C)cc1`, the “% Inhibition” value is listed as -7% and the Z score was 1.42.
For `C1=C(c2cnc3ccccc3c2)CCNC1` the same measures were -8% and 0.98.
In the case of `O=C1CNC[C@H]2c3cccc(Cl)c3CCN12`, the “% Inhibition” value is 3% and the Z score is recorded as -0.42.
For `O=C(c1ccc(Cl)cc1)[C@H]1CCCN(Cc2ccc3nsnc3c2)C1` the same measures were 10% and -1.53.
For `COc1ccccc1NC(=O)N1Cc2c(C)cc(C)nc2-n2cccc2[C@H]1c1ccc(F)cc1` the same measures were 0% and -0.04.
Consider `CCn1cc(C(=O)NCc2ccc(C)o2)c2cccnc21`, for which the “% Inhibition” value is listed as -13% and the Z score came out at 1.32.
For the compound `C[C@@H](C(=O)Nc1cncc(F)c1)N1CCOCC1`, the “% Inhibition” value is given as -12% and the Z score is 1.55.
For `O=C(Cc1cccc2ccccc12)N1CCCN([C@H]2CCOC2)CC1`, the “% Inhibition” value is listed as -15% and the Z score is on record as 2.52.
For `COc1cccc(CCNCc2cccc3cn[nH]c23)c1O` the same measures were 1% and -0.21.
Consider `CN1C(=O)c2ccccc2Oc2ccc(C(=O)N3CCC4(CC3)OCCO4)cc21`, for which the “% Inhibition” value is 11% and the Z score is reported as -1.62.
For `CC1CN(Cc2ccc(Cl)s2)CC2(CCOC2)O1` (stereo not given) the same measures were -16% and 1.39.
`Cc1cc(C(=O)N2CC[C@H]3CC[C@@H](C2)N3)cc(=O)[nH]1`: the “% Inhibition” value was determined as 3% and the Z score is -0.43.
For `Cc1cc(C(=O)N2CCC(c3n[nH]c(=O)o3)CC2)cc(O)n1` the same measures were -8% and 0.88.
For `Cc1nccc(NS(=O)(=O)c2ccc(S(=O)(=O)F)cc2)n1` the same measures were -12% and 1.9.
For `CN(c1ncnc2[nH]ccc12)C1CCN(CCC(F)(F)F)CC1` the same measures were 3% and -0.61.
Turning to `Cc1cccc([C@H](Cn2ccnc2-c2ccco2)N(C)C)c1`, the “% Inhibition” value is listed as -9% and the Z score is 1.11.
For `CN1C2CCC1CC(Oc1nc(C3CC3)ns1)C2` (stereo not given) the same measures were -15% and 1.98.
For `CCOc1cccc2c1cc(C(=O)NCc1ccccn1)n2Cc1ccccc1C` the same measures were -1% and 0.14.
For `COc1ccccc1NC(=O)c1ccc2oc(=O)n(Cc3ccccc3)c2c1` the same measures were -2% and 0.22.
For the compound `O=C(Oc1cccc(-c2nnco2)c1)N1CCCCC1`, the “% Inhibition” value was 5% and the Z score is on record as -0.89.
With `Cc1ccoc1CN1CCCC2(C1)OCCO2`, the “% Inhibition” value is -12% and the Z score was found to be 2.21.
As to `COc1ccc2c(c1)C1CCCNC1CO2` (stereo not given), the “% Inhibition” value is on record as -11% and the Z score is given as 1.44.
For `CC(C)NC(=O)c1cn(CC2CCCCC2)cc(C(=O)N2CCc3ccccc3C2)c1=O` the same measures were -3% and 0.47.
Take `Cc1ccsc1C(C)NCC1CN2CCN1CC2` (stereo not given): the “% Inhibition” value is reported as 0% and the Z score is 0.
For `CN(C)[C@H]1CN(C(=O)Cc2ccc(CO)cc2)C[C@@H]1C1CC1` the same measures were -1% and 0.19.
As to `Fc1ccc(C[C@H]2CCOC3(CCNCC3)C2)cc1`, the “% Inhibition” value is listed as -12% and the Z score was 1.3.
In the case of `CN(CC(=O)N1CCC2(CC1)OCCO2)c1ccc(F)cc1`, the “% Inhibition” value is given as 30% and the Z score is recorded as -3.38.
Turning to `CCOC(Cn1cc(C(=O)NC2CCC(C)CC2)nn1)OCC` (stereo not given), the “% Inhibition” value is -5% and the Z score is given as 0.79.
For `COc1ccccc1-c1cc([C@H]2CN3CC[C@H]2C[C@@H]3CN)n(C)n1` the same measures were 29% and -3.28.
For `CC(C)n1cc(-c2c(-c3ccccc3)ncn2[C@H]2CN3CCC2CC3)cn1` the same measures were 0% and -0.03.
For `O=C(C1CCOCC1)N1[C@H]2CC[C@@H]1c1cnc(-c3ccc(F)cc3)nc1C2` the same measures were -23% and 3.27.
For the compound `NC(=O)c1cnc(N2CCC[C@H]2c2cccnc2)c(Cl)c1`, the “% Inhibition” value was -4% and the Z score is 0.53.
For `CCCCc1cn(C[C@H]2C[C@@H]3CCN2C[C@@H]3C(=O)Nc2ccccc2)nn1` the same measures were 25% and -2.83.
With `Cc1nn(C)cc1CNC(=O)c1c(CC2CCCC2)n(Cc2cccnc2)c(C)cc1=O`, the “% Inhibition” value was -11% and the Z score is listed as 1.34.
For `Cc1cc(C)c(CNc2cc(-c3cccnc3)nc3ncnn23)c(=O)[nH]1` the same measures were -4% and 0.5.
For `C=CCCC(CN1C[C@H]2CC=CC[C@H]2C1)Oc1ccnc(C)n1` (stereo not given in full) the same measures were 3% and -0.6.
For `CN1CCN2CCN(c3ncc(C#N)c(N)n3)C[C@@H]2C1` the same measures were -14% and 1.37.
Regarding `CN(C)[C@@H]1C[C@@H](CO)N(C(=O)Cc2ccc(F)cc2Cl)C1`, the “% Inhibition” value is reported as -21% and the Z score was determined as 1.89.
For `C=CCn1cc(CNCCc2ccc(CC)cc2)c(C)n1` the same measures were 9% and -1.68.
For `Cc1nc(-c2ccc(F)c(F)c2)c(N)c(N(C)C2CCN(C)CC2)n1` the same measures were -13% and 1.83.
For `CN1[C@@H]2CC[C@@H]1CC(OC(=O)[C@H](CO)c1ccccc1)C2` (stereo not given in full) the same measures were -10% and 1.31.
Turning to `Cc1nc[nH]c1CN1C[C@H]2CC[C@@H](C1)N(C(=O)Cc1ccncc1)C2`, the “% Inhibition” value was -5% and the Z score stood at 0.88.
Regarding `CCN1CCC2CCC(C1)N2Cc1cccs1` (stereo not given), the “% Inhibition” value is -13% and the Z score came out at 1.28.
For `CN(C)c1ccc(C(=O)N2CCC3(CC2)c2nccn2-c2ccccc2CN3C)cc1` the same measures were -16% and 2.12.

(Values after ChEMBL document CHEMBL4888484, “Replenishing the malaria drug discovery pipeline: Screening and hit evaluation of the MMV Hit Generation Library 1 (HGL1) against asexual blood stage Plasmodium falciparum ,using a nano luciferase reporter read-out” (2022).)
